Measurements published in US11457629B2, “Heteroarylphenylaminoquinolines and analogues” (Bayer Aktiengesellschaft, priority 2017, dated 2022).
Marks after values point to notes of the source that are not given here.

Summary of the method: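 Values were calibrated against C3–C16 straight-chain alkan-2-ones of known Log P, interpolating linearly between retention times. Separation used reversed-phase HPLC with 0.1% formic acid (acidic range), per EEC 79/831 Annex V.A8. Multiple values from one method are all reported, separated by "+".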

| logP | Log P | Structure (SMILES) |
| --- | --- | --- |
| 3.11 ^[a] |  | Cn1nccc1-c1c(F)cccc1Nc1cnc2ccccc2c1Cl [Example I-085] |
| 3.61 ^[a] |  | Cc1nc2c(F)c(F)ccc2cc1Nc1ccc(OC(F)(F)F)cc1-c1ccnn1C [Example I-233] |
|  | 3.19 ^[a] | Cc1cc(-c2ccccc2Cc2cc3ccc(F)c(F)c3nc2C)n(C)n1 [Example I-320] |
| 2.35 ^[a] |  | CCn1nccc1-c1c(F)cccc1Nc1cnc2ccccc2c1C [Example I-090] |
|  | 4.32 ^[a] | Cc1nc2c(F)c(F)ccc2cc1Nc1cccc(F)c1-c1ccnn1C(C)(C)C [Example I-323] |
| 3.09 ^[b] |  | CC1=NOC(c2c(F)cccc2Nc2cc3ccccc3nc2C)C1 (racemic) [Example I-035] |
| 2.34 ^[a] |  | Cn1nccc1-c1cc(Cl)ccc1Nc1cnc2ccnn2c1 [Example I-211] |
|  | 2.25 ^[a] | CCn1ncc(F)c1-c1c(F)ccc(F)c1Nc1cnc2ccccc2c1C [Example I-263] |
| 4.03 ^[a] |  | Fc1ccc2cc(Nc3ccccc3-c3ccnn3CCc3ccccc3)cnc2c1F [Example I-154] |
| 1.72 ^[a] |  | Cc1c(Nc2ccc(F)cc2-c2ccnn2C)cnc2ccccc12 [Example I-157] |
| 4.23 ^[a] |  | CC1=NOC(C)(c2c(F)cccc2Nc2cc3ccc(F)c(F)c3nc2C)C1 (racemic) [Example I-042] |
| 4.77 ^[a] |  | Cc1nc(-c2ccccc2Nc2cnc3ccccc3c2)sc1C [Example I-054] |
| 2.95 ^[a] |  | C=C(C)c1ccnn1-c1c(F)cccc1Nc1cnc2ccccc2c1 [Example I-079] |
| 4.21 ^[a] |  | Cc1nc2c(F)c(F)ccc2nc1Nc1cccc(F)c1-c1ccnn1C(C)C [Example I-104] |
|  | 2.86 ^[a] | Cn1nccc1-c1c(F)ccc(F)c1Nc1cnc2c(F)c(F)ccc2c1F [Example I-309] |
| 3.33 ^[a] |  | Cn1nccc1-c1ccccc1Cc1cc2ccccc2nc1C(F)F [Example I-201] |
|  | 3.15 ^[a] | Cc1nc2c(F)c(F)ccc2cc1Cc1ccc(F)cc1-c1ccnn1C [Example I-335] |
| 2.37 ^[a] |  | c1ccc(-c2ccnn2C2CCCCO2)c(Cc2cnc3ccccc3c2)c1 (racemic) [Example I-116] |
|  | 3.31 ^[a] | CCn1nccc1-c1c(F)ccc(F)c1Nc1nc2ccccc2nc1C(F)F [Example I-329] |
| 3.27 ^[a] |  | CCn1nccc1-c1cc(F)ccc1Nc1cnc2ccccc2c1Cl [Example I-169] |
| 3.02 ^[b] |  | CC1=NOC(C)(c2ccccc2Nc2cnc3c(F)cccc3c2)C1 (stereo not drawn) [Example I-020] |

| logP | Log P | Structure (SMILES) |
| --- | --- | --- |
| 4.20 ^[a] |  | Cc1nc2ccccc2nc1Nc1ccc(F)cc1-c1ccnn1CCc1ccccc1 [Example I-161] |
| 2.82 ^[a] |  | Cn1nccc1-c1cc(F)ccc1Nc1cnc2c(F)c(F)ccc2n1 [Example I-189] |
| 4.57 ^[a] |  | CC(C)(C)n1ccc(-c2c(F)cccc2Nc2cnc3ccccc3c2)n1 [Example I-032] |
|  | 3.65 ^[a] | Fc1cccc2cc(Cc3ccccc3-c3ccnn3Cc3ccccc3)cnc12 [Example I-359] |
| 3.01 ^[a] |  | Cn1ccc(-c2c(F)cccc2Nc2cnc3ccccc3c2)n1 [Example I-025] |
| 3.75 ^[a] |  | CC1(C)CC(c2c(F)cccc2Nc2cnc3ccccc3c2)=NO1 [Example I-056] |
|  | 3.76 ^[a] | Cc1nc2c(F)c(F)ccc2nc1Cc1ccccc1-c1ccnn1C(C)C [Example I-345] |
|  | 3.55 ^[a] | Cc1nc2c(F)c(F)ccc2cc1Cc1ccccc1-c1c(Cl)cnn1C [Example I-294] |
| 4.31 ^[a] |  | CC(C)c1ncc(-c2ccccc2Nc2cnc3ccccc3c2)s1 [Example I-045] |
| 1.95 ^[a] |  | Cc1c(Nc2ccc(F)c(F)c2-c2ccnn2C)cnc2ccccc12 [Example I-117] |
| 4.56 ^[a] |  | Cc1nc2c(F)c(F)ccc2nc1Nc1ccccc1-c1ccnn1CCc1ccccc1 [Example I-172] |
|  | 3.63 ^[a] | Clc1cccc2cc(Cc3ccccc3-c3ccnn3Cc3ccccc3)cnc12 [Example I-341] |
|  | 3.31 ^[a] | Cc1nc2c(F)c(F)ccc2cc1Cc1cccc(Cl)c1-c1ccnn1C [Example I-330] |
| 2.56 ^[a] |  | Cc1nc2ccccc2nc1Nc1ccc(F)cc1-c1ccnn1C [Example I-185] |
| 2.84 ^[b] |  | CC1=NOC(c2c(F)cccc2Nc2cnc3ccccc3c2)C1 (racemic) [Example I-034] |
| 1.82 ^[a] |  | Cc1nn(C)cc1-c1ccccc1Cc1cnc2ccccc2c1 [Example I-068] |
| 2.82 ^[a] |  | CC(C)(C)n1ccc(-c2ccccc2Cc2cnc3ccccc3c2)n1 [Example I-205] |
| 1.88 ^[a] |  | Cn1nccc1-c1ccccc1Nc1cnc2ccnn2c1 [Example I-140] |
|  | 2.70 ^[a] | Cn1nccc1-c1cc(F)ccc1Cc1cnc2c(F)cccc2c1 [Example I-252] |
| 3.05 ^[a] |  | Cn1nccc1-c1c(Nc2cnc3ccccc3c2Cl)ccc(F)c1F [Example I-237] |
|  | 3.87 ^[a] | CCn1nccc1-c1cc(Cl)ccc1Cc1cc2ccc(F)c(F)c2nc1C [Example I-351] |

| logP | Log P | Structure (SMILES) |
| --- | --- | --- |
| 3.02 ^[a] |  | Fc1ccc(Nc2cnc3ccnn3c2)c(-c2ccnn2CCc2ccccc2)c1 [Example I-141] |
| 2.96 ^[b] |  | CC1=NOC(C)(c2ccccc2Nc2cnc3ccccc3c2)C1 (stereo not drawn) [Example I-019] |
|  | 3.80 ^[a] | Cn1nccc1-c1cc(OC(F)(F)F)ccc1Nc1cnc2c(F)c(F)ccc2n1 [Example I-258] |
| 1.11 ^[a] |  | Cn1cncc1-c1cc(F)ccc1Nc1cnc2ccccc2c1 [Example I-244] |
|  | 4.13 ^[a] | Cc1nc2c(F)c(F)ccc2cc1Cc1ccccc1-c1ccnn1Cc1ccccc1 [Example I-288] |
| 3.33 ^[a] |  | CCn1nccc1-c1c(Nc2nc3ccccc3nc2C)ccc(F)c1F [Example I-247] |
| 3.24 ^[a] |  | Cc1ccc(Nc2cnc3ccccc3c2Cl)c(-c2ccnn2C)c1 [Example I-212] |
| 3.23 ^[a] |  | Cc1cc(-c2c(F)cccc2Nc2cc3ccc(F)c(F)c3nc2C)n(C)n1 [Example I-107] |
|  | 3.62 ^[a] | Cn1nccc1-c1cc(OC(F)(F)F)ccc1Nc1cnc2c(F)c(F)ccc2c1 [Example I-255] |
| 4.03 ^[b] |  | CCC1=NOC(C)(c2ccccc2Nc2cc3ccc(F)c(F)c3nc2C)C1 (stereo not drawn) [Example I-024] |
| 4.27 ^[a] |  | CC(C)(C)n1ccc(-c2ccccc2Nc2cnc3ccccc3c2)n1 [Example I-005] |
| 2.76 ^[a] |  | Cc1c(Nc2ccc(F)cc2-c2ccnn2CCc2ccccc2)cnc2ccccc12 [Example I-186] |
| 2.26 ^[a] |  | Cn1nccc1-c1c(F)cccc1Nc1cnc2ccccc2c1 [Example I-029] |
| 2.96 ^[a] |  | Cc1nc2c(F)c(F)ccc2cc1Nc1ccc(F)cc1-c1ccnn1C [Example I-147] |
|  | 3.55 ^[a] | Cc1nc2c(F)c(F)ccc2cc1Cc1ccc(Cl)cc1-c1ccnn1C [Example I-350] |
| 3.33 ^[a] |  | CCn1nccc1-c1c(F)cccc1Nc1nc2ccccc2nc1C [Example I-091] |
|  | 3.79 ^[a] | CCn1nccc1-c1ccccc1Cc1cnc2c(C(F)(F)F)cccc2c1 [Example I-336] |
| 3.58 ^[a] |  | Cn1nccc1-c1cc(Cl)ccc1Nc1cnc2c(F)c(F)ccc2n1 [Example I-220] |
| 2.87 ^[a] |  | Cc1cccc2cc(Nc3ccc(F)c(F)c3-c3ccnn3C)cnc12 [Example I-240] |
| 3.87 ^[a] |  | Cc1ccc(Nc2cnc3c(C(F)(F)F)cccc3c2)c(-c2ccnn2C)c1 [Example I-221] |
|  | 2.34 ^[a] | Cn1nccc1-c1ccccc1Cc1cnc2ccccc2n1 [Example I-357] |

| logP | Log P | Structure (SMILES) |
| --- | --- | --- |
| 2.90 ^[a] |  | CCn1nccc1-c1cc(F)ccc1Nc1cnc2c(F)cccc2c1 [Example I-150] |
| 1.96 ^[a] |  | CC(C)(O)c1ccnn1-c1c(F)cccc1Nc1cnc2ccccc2c1 [Example I-077] |
| 3.27 ^[a] |  | CCn1nccc1-c1cc(F)ccc1Nc1cc2ccc(F)c(F)c2nc1C [Example I-144] |
|  | 2.84 ^[a] | Cn1nccc1-c1ccccc1Cc1cnc2c(F)c(F)ccc2c1 [Example I-355] |
|  | 3.35 ^[a] | CCn1nccc1-c1c(F)cccc1Cc1cc2ccc(F)c(F)c2nc1C [Example I-331] |
| 3.46 ^[a] |  | Cc1nc2c(F)c(F)ccc2nc1Nc1ccc(F)c(F)c1-c1ccnn1C [Example I-232] |
| 3.08 ^[a] |  | CCn1nccc1-c1cc(F)ccc1Nc1nc2ccccc2nc1C [Example I-160] |
|  | 4.49 ^[a] | Cc1nc2c(F)c(F)ccc2cc1Nc1ccc(F)cc1-c1ccnn1CC(F)(F)F [Example I-281] |
| 3.76 ^[a] |  | Fc1ccc(Nc2cnc3c(F)cccc3c2)c(-c2ccnn2CCc2ccccc2)c1 [Example I-182] |
| 2.90 ^[a] |  | Cn1nccc1-c1cc(F)ccc1Nc1cnc2ccccc2c1Cl [Example I-166] |
| 3.39 ^[a] |  | CCn1nccc1-c1c(Nc2cnc3ccccc3c2Cl)ccc(F)c1F [Example I-246] |
|  | 3.37 ^[a] | Cn1nccc1-c1cc(OC(F)(F)F)ccc1Nc1cnc2c(F)cccc2c1 [Example I-253] |
| 3.09 ^[a] |  | CCn1nccc1-c1ccccc1Nc1cnc2c(F)c(F)ccc2c1 [Example I-151] |
| 3.39 ^[a] |  | Cc1nc2ccccc2cc1Nc1cccc(F)c1-c1ccn(C(C)(C)C)n1 [Example I-033] |
|  | 2.96 ^[a] | CCn1nccc1-c1c(F)ccc(F)c1Nc1nc2ccccc2nc1CF [Example I-313] |
| 3.09 ^[a] |  | Cc1ccc(Nc2nc3ccccc3nc2C)c(-c2ccnn2C)c1F [Example I-178] |
| 2.04 ^[a] |  | Cc1c(Nc2cccc(F)c2-c2ccnn2C)cnc2ccccc12 [Example I-086] |
| 3.29 ^[a] |  | Fc1cccc2cc(Nc3ccccc3-c3ccnn3-c3ccccc3)cnc12 [Example I-108] |
|  | 4.06 ^[a] | Cc1nc2c(F)c(F)ccc2cc1Nc1cccc(F)c1-c1ccnn1CC(C)C [Example I-306] |
|  | 3.50 ^[a] | Cc1nc2c(F)c(F)ccc2cc1Nc1cccc(F)c1-c1ccnn1C1CC1 [Example I-302] |
| 4.39 ^[a] |  | Cc1nc2c(F)c(F)ccc2cc1Nc1ccccc1-c1ccnn1C(C)(C)C [Example I-053] |
